Measured values published in patent US20050191293A1 (Bristol-Myers Squibb, published 2005).

Biological target: T1, human CXCR3 (human, UniProt P49682 1-368)
T1 construct: On 300.19 cells transfected to express CXCR3; also called receptor for IP-10
T1 sequence: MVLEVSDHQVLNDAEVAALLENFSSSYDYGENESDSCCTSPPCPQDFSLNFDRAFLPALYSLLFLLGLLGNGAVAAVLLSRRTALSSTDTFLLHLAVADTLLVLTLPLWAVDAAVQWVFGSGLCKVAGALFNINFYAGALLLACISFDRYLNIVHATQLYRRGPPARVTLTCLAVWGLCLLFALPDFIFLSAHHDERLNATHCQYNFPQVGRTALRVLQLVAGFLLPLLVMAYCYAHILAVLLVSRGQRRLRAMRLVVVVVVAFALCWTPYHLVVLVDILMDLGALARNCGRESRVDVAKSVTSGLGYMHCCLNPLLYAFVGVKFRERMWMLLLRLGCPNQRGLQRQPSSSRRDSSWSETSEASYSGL
Experiment: Scatchard analysis, 125I-IP-10 binding to 300.19 cells transfected to express CXCR3
Method: The cells were grown in RPMI media containing 10% FCS and G418 selection. Prior to use, the cells were washed twice with Hank's Balanced Salt Solution (HBSS) at 4° C. and adjusted to 4×10⁷ cells/ml. Glass fiber plates (Millipore MultiScreen®, Cat. #MAFBNOB50) were blocked with 200 μl of a 0.1% polyethyleneimine solution one day prior to the experiment. On the day of the study, the blocking buffer was aspirated by using a Millipore manifold. The plates were washed three times with 200 μl of binding buffer (50 mM HEPES, pH 7.2, 1 mM CaCl₂, 5 mM MgCl₂, 0.5% BSA). […] The plates were incubated on a plate shaker for 60 minutes at room temperature and washed three times with wash buffer (10 mM HEPES, pH 7.2, 0.5 M NaCl, 0.5% BSA) at a volume of 200 μl per wash. The plates were dried, 25 μl of scintillant was added and the plates were counted on a Wallac Microbeta Counter. Data were analyzed using Prism software and a KD was calculated.

B1: human IP-10 (interferon gamma inducible protein 10) (ligand)
chain: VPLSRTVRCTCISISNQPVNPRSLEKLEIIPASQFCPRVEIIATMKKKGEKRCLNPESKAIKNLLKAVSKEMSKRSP
notes: Native IP-10 from THP-1 supernatant and from MS patient CSF in the migration assays is also put under this molecule; also called CXCL10; rhIP-10
- Kd: 0.231 nM
